Reference: PubChem BioAssay AID1508623 (National Center for Advancing Translational Sciences (NCATS), 2021)
Screen size: about 48,000 compounds; about 450 (0.94%) were called active. Inconclusive results (about 19%) are left out. Calls follow the shape of the dose curve; as a rule, active = well fitted inhibition curve with a large enough effect; inconclusive = small, poorly fitted or top-dose-only effect; inactive = no such curve, though single readings can be large or run the other way. Some of the results follow.

experiment: Primary qHTS for Identification of Small Molecule Inhibitors of Huntingtin Promoter Activity; settings: HEK293 HTT promoter firefly luciferase reporter (activity 0% = vehicle and -100% = no light), 24 h; series mostly up to 57.5 µM; activity change, negative = inhibition: at the top concentration; also: nearly all actives have a fitted effect of over 50% in size
Procedure, shortened: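 Firefly luciferase signal from promoter-reporter HEK293 cells was scaled between vehicle (0%) and zero RLU (-100%). Compounds were tested at final concentrations of up to 57.5 uM over 24 h at 37 degrees C. PTC124 at 50 uM final served as control inhibitor.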

Activity change, negative = inhibition, inactive:
CCN(CC)S(=O)(=O)c1ccc2nc(NC(=O)c3cccnc3)sc2c1 -21.9%
COc1cc(-c2noc(-c3ccc(N4CCN(C)CC4)c([N+](=O)[O-])c3)n2)cc(OC)c1OC -4.5%
CCOC(=O)c1cc(S(=O)(=O)NCc2ccccc2)[nH]n1 -0.31%
CCC(CO)NC(=O)C(=O)Nc1c2c(nn1-c1ccc(F)cc1)CSC2 (stereo not drawn) -20.6%
Cc1cc(Nc2ccc(C)c(Cl)c2)n2nc(Cc3ccccc3)nc2n1 -25.3%
COCCn1c(=O)[nH]c2cc(C(=O)NCc3ccccc3Cl)ccc2c1=O -16.1%
CCOc1ccc(NC(=O)c2c(Nc3ccc(OC)cc3OC)sc(C(=O)c3ccc(Cl)cc3)c2N)cc1 -15.4%
CCOC(=O)c1cccc(NC(=O)c2cc3sccc3n2Cc2ccc(Cl)cc2)c1 -21.3%
CCOC(=O)c1cnn(-c2ccc(OC)cc2)c1C1CCN(C(=O)OC(C)(C)C)CC1 -28.3%
Cc1cccc(-c2nc(SCc3ccc(Br)cc3)n3[nH]c(=O)cc3n2)c1 -1.48%
CC1CCCCN1c1csc2ccc(F)cc2c1=O (stereo not drawn) 37.3%
Cn1nc(C(=O)Nc2cc(F)ccc2F)c2c1-c1ccccc1SC2 15%
CCOc1ccn(-c2ccc(F)cc2)c(=O)c1C(=O)Nc1ccc(Oc2ccnc(N)c2Cl)c(F)c1 -9.3%
CSc1nc2sc3c(c2c(=O)n1-c1ccc(C)c(Cl)c1)CCN(C(C)=O)C3 -10.1%
CCOc1ccc(CCNC(=O)c2ccc3c(c2)c(C)c(C)n3C)cc1 2.06%
COC(=O)c1ccc(NC(=O)CSc2nc(=O)n(Cc3ccco3)c3c2CCC3)cc1 0%
COc1cc(C(=O)N(Cc2ccc(C(C)C)cc2)C2CCS(=O)(=O)C2)cc(OC)c1OC (stereo not drawn) -12.3%
CC(=O)C1=C(OC(=O)C(C)C)c2ccccc2S(=O)(=O)N1Cc1ccccc1 -15.8%
CCN(CC)CCNC(=O)c1ccc(NC(C)=O)cc1 1.63%
Cc1ccc(CNC(=O)CC2Oc3ccccc3NC2=O)cc1 (stereo not drawn) -1.99%
CCOC(=O)C1CCCN(C(=O)Cn2ncc3c([nH]c4ccccc43)c2=O)C1 (stereo not drawn) -5.56%
Cc1ccc(N2CC3=C(C2=O)C(c2ccc(Br)cc2)NC(=O)N3C)cc1 (stereo not drawn) 4.99%
CC(C)c1ccc(NS(=O)(=O)c2ccc3[nH]cc(C(=O)NC4CCCC4)c(=O)c3c2)cc1 8.14%
O=C1Cc2cc(S(=O)(=O)N3CCN(c4ccccc4)CC3)ccc2N1 -14.9%
CCOc1ccccc1-n1ccnc(NCc2ccc(F)cc2)c1=O -19.5%
Cc1cccc(NC(=O)Nc2nnc(N(C)C3CCCCC3)s2)c1C -11.6%
Cc1nn(CC(=O)NCc2ccco2)c(=O)c2cc3ccccc3n12 -9.47%
CCc1ccccc1N(C)C(=O)c1cn(CC(C)C)c(=O)c2cc(OC)c(OC)cc12 -18.1%
